In paper PMC10726135:
The list shows a part of the results. At the low end of the ranking, values are background and their order means little. The protein was read in a cell extract, so binding may be indirect.

Molecular target: T1, HNF4alpha2 (COS-7 nuclear extract) (UniProt P41235)
T1 sequence: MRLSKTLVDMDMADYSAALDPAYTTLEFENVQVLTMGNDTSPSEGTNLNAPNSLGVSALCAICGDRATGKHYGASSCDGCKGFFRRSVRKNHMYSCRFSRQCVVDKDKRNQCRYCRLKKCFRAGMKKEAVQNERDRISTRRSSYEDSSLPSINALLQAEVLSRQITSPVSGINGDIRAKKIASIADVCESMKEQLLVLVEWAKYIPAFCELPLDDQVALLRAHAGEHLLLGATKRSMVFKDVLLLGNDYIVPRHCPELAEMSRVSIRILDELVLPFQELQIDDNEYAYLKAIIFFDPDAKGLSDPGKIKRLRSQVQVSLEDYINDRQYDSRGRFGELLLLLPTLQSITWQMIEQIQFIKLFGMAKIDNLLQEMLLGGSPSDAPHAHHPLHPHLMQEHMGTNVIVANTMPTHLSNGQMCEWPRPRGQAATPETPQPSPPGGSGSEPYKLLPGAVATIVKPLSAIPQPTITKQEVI
Assay: protein-binding microarray
Details: COS-7 nuclear extract on double-stranded Agilent 4x180k PBM; binding buffer, salt, pH and temperature not given; high values mean tight binding; double strand, one strand shown; sequences stand for … in …GCCTAGGGAGATTAGAGTATCGGTCGA

| Sequence | binding signal (log2 normalized intensity) |
| --- | --- |
| TTCCTTAAGATTAGTTCTTTGTAGGAAGGC | 1.22 |
| GGTAGAGTCTAAGGAGGCAGTAAGATAAGG | -1.14 |
| GGAAACCGCGATTAAAAATGGAACAGTAAG | -1.25 |
| GTCTTATTCAGCCTCATTGATTTGAACATT | 2.42 |
| CAGAGAAGATTAGCTCACAGGAAAGGAGAC | -1.01 |
| GGCGAGTGTGCAATTAGAGCAAAGGTTACT | 3.08 |
| ACAGCCCTCCAACTATGCTAAGAATGCGAA | -1.02 |
| TTCTCCTGTGATCTGGATTTTCAGGTTCCC | 0.467 |
| CTTAGGTACTTTTCTGTTTGTCTTACTGTG | 1.93 |
| AGAGAAGGAGCCAGAGCTTTGGGAAAAGTG | -1.14 |
| AAGCTCTTTCCCTCCACCAAGTTTCCCACA | 1.72 |
| TTAAACACGTTTTATTAGGGGTCAGCAAAG | 2.14 |
| ACCATGCCTATAAATTGCCTGGCTTCAATA | -1.11 |
| TGCAAGGGCAGCTCCGTTTACCTAGAGGCA | -1.2 |
| TTGAAGTTTTGGCCAACAGAGGGGTCAGAG | 2.11 |
| TGACAGCATGTTCGGCTGAGACCTGATCAG | 0.111 |
| AATTTCTCAGATGCCAGCTAAGATCAGTAG | 0.98 |
| TGGCCTTTGGCTGTTCGATGTATACAGTAT | 1.4 |
| CCATAACCCTCAGCTCCTCTCCTCCATGGC | -0.695 |
| TTTGTTGCCTCTTTTCTGCTTTTGGAATTT | 2.71 |
| ACCTTGTCCCTGGATTGTGTTGCACTGTTT | 2.13 |
| TTCACATTCCAGTGTTTCAAAGGAGTGTCT | 1.32 |
| GTTTACTCATGTGGTCCTAAGACTGACCTT | 3.77 |
| CCTCTTGCGTGTTATCTATGGAACATGGAC | 2.24 |
| AGAGGAAAAAGTCCCTGGTCCCATAGGAAA | -1.1 |

| Sequence | binding signal (log2 normalized intensity) |
| --- | --- |
| AAGTTATCTTGAGACCTCAAGGGGAGAGGA | -1.11 |
| TTTCCAGCAAATCCCAATTCACTGACACAA | -1.1 |
| ACATGAGGTAGAGGGACACTGATAACACTG | -1.18 |
| CTCAACACTGGCTTCTCTGGCCTAGTAAGA | -1.11 |
| TTAAGCCAAAGTCCAAGTTGGTGAGAACAG | 2.66 |
| AAGGACTGGACCACCTCCTCAAAGAGCAGA | -0.99 |
| TACCTGTGCAGATATTTAACCTTTGATCTG | 7.34 |
| TGCTTCCAGTTCCATAATCCCCGAATGTCC | 2.87 |
| AGGGGCATTTGAGTACATGCCTCTCCCAGT | 0.552 |
| TTTGCAAATGACTTTGAGAGTAAGTTTCTG | -0.533 |
| CCCTCCCCCCACTCAAAATAGGAGTTAAGG | 2.45 |
| GCAAACATTTCACTTTGCTCCCTCCTTCAG | 0.666 |
| CTGGCCCACTGTTCTCTCTAGAGAGAACAG | -1.14 |
| AACCTGCTGCAGGAGAGATGGTCAGATTTT | 0.577 |
| CTGCCTTCCTGCTCATGCAGCTGCTGCCCA | -1.04 |
| TTTGCCTGGTGATCTTTGTTAGACCCTTAT | 2.48 |
| AGACACTTTGGCTCCAGAGTCCACATTCTT | 2.45 |
| CATGATTGTAGCCAAACTCACAGCTTTTAT | -0.939 |
| CGTTGGTGCTCCCCCACCCTGTGTCAGCAT | 3.93 |
| GGGCATTCTGGAGTTTGGAACCAAATCAGC | 1.92 |
| TCAGATGCAGTCCAGAAGGTCAGGACCACA | 0.404 |
| GACTTGAGAAGACATAGTTTTTGCCCTTAA | 2.29 |
| CTAGCTGTGTAACCCTGGACAAGTTATCTT | 0.776 |
| GGCTGCATTCCCAGATGGTTAGGTATTTTA | 0.231 |
| GGGAAGAGAGTATGGGATGATCAGTAAGGA | -0.994 |

| Sequence | binding signal (log2 normalized intensity) |
| --- | --- |
| CACCCCCATCTATGCACTCTCACCTTGGGG | 0.591 |
| ATGGGGGAAGGGCTGGAGACGCAGGAGATG | -1.12 |
| TGTGTGTGTGTGGTGTGTGTGTGTGTGTTT | 3.51 |
| ACATTTGCGCAAACATAAAGGCAAAGGTCA | 4.79 |
| ACTTTCAACAAGGTGGAGACCTCTGCAGGA | 0.192 |
| AGGTCTCTGCATACCAGGTAAGTGACATGC | -0.382 |
| GGAAATGGATTGCCTCCTAAGGCCTCCAGA | -1.21 |
| ATCTGGGCCAAGGCAGATATACCAGATAAG | -1.11 |
| ACCAGTGGACCATGAGAAACATCCACATGT | -1.06 |
| TCTGTCTTTGATCTGCTATCTCAGATAGCT | -1.32 |
| TTCCATTAACTGAACCTAGATTCCAGGAAG | -0.614 |
| CAGCGGCCGGAAAAAGTGAGGAGCAGCAGA | -1.06 |
| CGGACGGGCTGCGGAGGCGACTGCAGATTG | -1.2 |
| TTCTCCGGGTTCTGCGCAGGGAGGAGCGCA | -0.994 |
| ACTGGAATAAAGCAGTCCCTACTTCAAAGG | -1.17 |
| GTGCAAGGGAATGTAAGGCACTTTATCTAG | -1.09 |
| TTCAGCAAATACTAATTCTCCCCCACCTGT | 4.53 |
| CTGGGATCCAAAGTTCATGGAAAGTTTCAC | 2.56 |
| AGCAGTCCCTTCCCCCCTCCTCATTGAGAG | 4.37 |
| CAGAGATCAAAAACCAAAGCTGGAGTGCAG | -0.83 |
| CCAAGGTGCTAGCTCCGACTCAGTGGGGGG | -1.14 |
| GTGGCCTGTGCCTGTAGTCCCAGCGACTTG | -1.1 |
| CACATTGTAGCTAAAATGTTAATGATTACT | -1.02 |
| TCCTGTTCAACTATTCCTCGACCTTCGGCT | 2.73 |
| CCTCGGTGGAGTTGACACAGACCTGCCTCT | -1.13 |

| Sequence | binding signal (log2 normalized intensity) |
| --- | --- |
| AATATAGGCCAGGCATACCTTTCTTATCAT | -0.327 |
| TCTTATCTAGGTAAGTATAGTGGGAGGAGA | 1.16 |
| GGCTGCGACCTGCTGGGCTGCATTCCCAGA | -1.13 |
| TTCACACCATGCTCTAGTCTTCCTGTCTCC | -0.199 |
| CCATTATCTCCTTAGGTACTTTTCTGTTTG | 2.02 |
| ATTTTTATCTGTTTATTTTGCAATTAACAA | 0.164 |
| CAGTATTTGGTGAGGCCCCAGTGTCAATTC | 1.49 |
| AAGATTGTTGAATACTTGGAGACAGTGAGA | 0.359 |
| TAAGGGTGTTTGTCCTTTGTTGCAATGCTG | 1.28 |
| CCCCAATACACACACACCCCTCCACTGGAC | 3.64 |
| TTATCTAGACAAATTTGTTTACTTCTGTCT | 0.69 |
| CTCAGATGCCAGCTAAGATCAGTAGCTAGG | -1.07 |
| AAAACATATTTGCATAATGGAGCAAAGGTC | 5.4 |
| TGGTGTGGACAGCAGACAACTTTTCCTCTA | -1.14 |
| AGTCCAAAGCTCAGATTGCCTAAAGGGGAT | -1.14 |
| CATCTTTGAGCTGGATGACCTTTGTCCTGG | 8.57 |
| ACAGAAGAAGGAAAAGGCCTGACCTTTGCC | 4.61 |
| ACGCAGTCCCGCGTGGCCTTGTGGGAGCTG | -1.09 |
| AGTGGCTTTGTTGATAACAAGTAAAATGAG | 0.396 |
| ATGGTTAGCACTCTGGACTCTGAATCCAGC | 2.69 |
| TGTGTCTTTATAACAGACTGTAGGCTTGGA | 1.72 |
| ACTCCATCCTCACTTTAGGTGCTCTTGGCT | 0.327 |
| TGAAAGTTCTCTGGGCTTTTTGATCTTGTC | 1.66 |
| AAATCACAATTTTCAAGAACAAACAAATTT | -1.05 |
| ACGCACGGCAGAGCACCTGGATAAGCCAGA | -1.22 |

| Sequence | binding signal (log2 normalized intensity) |
| --- | --- |
| CCCCCTGCTCCAGGCCGGCTTGCGTCCCCA | 3.43 |
| AGCCTACCCACCCACACCTCCCCTTTGTTT | 3.59 |
| TTGAGGAGAGTCAAAGGTTAATGAGCCCCC | 4.32 |
| AAACTTTAGTAGTCCAAAGCTCAGATTGCC | 0.566 |
| GGATAGAATCAAAGGTCAGGAATCGCATTG | 3.1 |
| CTTTCTGCATCGCAGTCGCCTGCAAGACAA | -0.955 |
| GTGTCTCCGAGATAAGGCGTCTTATCAGCC | -1.15 |
| TGGGTTCTTGCCCTTTGGTCTGGAACACAG | 3.31 |
| TATCTCACTTATTTGTCATAATGCTCTTAT | 1.75 |
| ATAGCTACGGGTGACCTTGAGCACTAAAGA | 0.298 |
| GGTCTTTGCCCTTTCCTAGACGTAAGACAA | 1.43 |
| TACAAATTCCAAGGACTGAGATAAGAGAAG | -1.12 |
| CTCCCTCTGAAGGGAGGGCCAAGCCCTCCA | -1.08 |
| TGGCCATTTGGGAAACCGCGATTAAAAATG | -1.13 |
| AGTGCAAAGGAGTCTGATTGTTGTGTGCCC | 1.93 |
| ACTGCGAAAGATAAAAGGCCATAGGGAAAG | -1.11 |
| CCCCTCTTTATCTCCTGGAATCCAAAGTAT | 1.68 |
| CCAGTGGTATGCCTCTGGGTGTCAGGGTTC | 2.12 |
| TGTGAGGATTGATTAGATAACATCTGGACT | 1.7 |
| AACCATACCTGGACAGCCTTTTTCAAGCAA | -0.955 |
| CAGTTTCTTTAAGACAAGTGTCCCTCAAAC | 0.959 |
| CGTGAGAAGAGGACTTTTTTTTGCCTAACT | -1.12 |
| TTGAGTCCATCCCATCTTCCAGAAATGCCA | 0.189 |
| ACGTCGAGCAGGCCCCGTCCCCGCCCCTTG | 5.05 |
| ACTCTGAAGGAATGTAAACTCCAAGGAGCA | -1.13 |

| Sequence | binding signal (log2 normalized intensity) |
| --- | --- |
| AGGCAAGAAGTATGACAACAAAGCATTATC | -1.2 |
| TGACTTTACCTGAAATGAGACCAAAGTATT | 0.763 |
| CTGTTTTCAAACACAGGATTGAACCTCTGG | 2.54 |
| TATCAGACCAGCATTCTTTCTGCTGCAATT | -1.12 |
| GGGTGGAAATCATCTCCATGCCGACTCCGA | -1.08 |
| CAGACACACAGTCCACAGGCTATAGGGAAG | -1.07 |
| GAGCATACATGCAGCTGAGAAAGAGAAAAT | -1.1 |
| GCTGGGTCAAAGTGTATGCATATTTTAAGT | 2.1 |
| AGAATATTAGATGATAAGGGTGAAAAGATA | -0.989 |
| GTGCAGCTGACCTACATTCCACCCTCATTT | 0.82 |
| AAGCAGGACTTAAACACCAGTACTCTTTAA | -1.11 |
| AGGCTGAAGTGAAGTTACAAAGGTCACGCT | 4.83 |
| TTTAAAGTGTAATTAAGGAAGATGGTGCAA | 0.522 |
| TAACAAGGCAAACTTTATCAAGACTGCAGC | -1.18 |
| TTTGGAGTTTGACCTGGAGCCAGGGCCTTT | 3.11 |
| TACTGACTGAGAAACCAAGATCCTAGTCTT | -1.24 |
| TGGTGCAAAGGTCAGGACAAGGCTCTGGTG | 3.95 |
| ACCATTGCTTCAGCAAAACCAGTTTGTCTG | -1.04 |
| CTCTGTTACACAAAATCGCCACTACAAAGG | -0.977 |
| GAGCACCTGGATAAGCCAGATAATTTGTGC | 0.299 |
